No constants are given. Whether binding was seen depends on the method and setting. In cells and extracts the contact can be indirect. Some entries that bind do so weakly or less than the wild type. Sequences can lack the tags named with a protein.
Columns and labels:
[1] = target: T1, Aub N-terminal fragment (1-220aa) (Drosophila melanogaster) (UniProt O76922); experiment: co-IP; tagged proteins co-expressed in S2 cells; lysis buffer 20 mM Tris pH 7.4, 200 mM KCl, 0.1% Tween-20, 0.1% Igepal, 100 μg/mL RNase A; anti-FLAG, anti-HA or anti-GFP beads, 4 °C, 4 h; Western blot; in Fig. 6e lysates were incubated with or without ssRNA oligo before the co-IP
T1 sequence: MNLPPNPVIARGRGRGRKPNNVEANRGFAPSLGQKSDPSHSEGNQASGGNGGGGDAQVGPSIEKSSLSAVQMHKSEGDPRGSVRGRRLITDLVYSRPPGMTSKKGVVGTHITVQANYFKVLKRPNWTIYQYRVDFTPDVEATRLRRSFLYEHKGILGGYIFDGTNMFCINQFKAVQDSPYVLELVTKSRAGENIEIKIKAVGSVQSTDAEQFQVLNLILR

[2] = target: T2, Aub with the N-terminal region (1-220aa) deleted (Drosophila melanogaster) (UniProt O76922); experiment: as above
T2 sequence: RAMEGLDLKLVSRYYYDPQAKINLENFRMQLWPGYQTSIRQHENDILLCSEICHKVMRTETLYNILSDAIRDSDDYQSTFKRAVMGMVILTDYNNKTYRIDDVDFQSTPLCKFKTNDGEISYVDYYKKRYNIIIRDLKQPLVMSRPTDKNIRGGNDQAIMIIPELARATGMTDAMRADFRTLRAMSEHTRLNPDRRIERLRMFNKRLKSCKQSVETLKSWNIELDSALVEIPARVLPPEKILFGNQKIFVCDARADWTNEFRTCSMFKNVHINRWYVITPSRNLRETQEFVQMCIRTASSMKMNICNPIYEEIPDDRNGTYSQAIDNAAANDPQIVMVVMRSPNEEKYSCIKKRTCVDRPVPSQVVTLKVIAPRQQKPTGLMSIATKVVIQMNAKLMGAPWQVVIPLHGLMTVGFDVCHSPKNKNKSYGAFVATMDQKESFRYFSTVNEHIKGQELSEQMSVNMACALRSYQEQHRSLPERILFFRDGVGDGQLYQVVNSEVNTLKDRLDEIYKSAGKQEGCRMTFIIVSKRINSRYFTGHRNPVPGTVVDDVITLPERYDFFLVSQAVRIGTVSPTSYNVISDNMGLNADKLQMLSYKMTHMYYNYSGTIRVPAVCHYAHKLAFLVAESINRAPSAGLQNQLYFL

binding [1]: binds
binding [2]: no binding
B1: Csul (tag not named; co-IP with Aub fragments) (enzyme, UniProt Q9U6Y9 1-610)
chain: MNYYVCLHQEGVNSIPKLIEKAFANNYNVVSTSINANMLPFEPHESDPTYPATILSGSDWNSKVIFTMSDVNVDSPNDKLREHAKEVFMRDVAWAEHLQNVGNLMVRLRGPENENLASIVLAKTKDDFPSGNWFIQVPITNPELATFEHRKDATAEEVAEAESNDPWNWWNNLRMVTKHSTKVKVVIELNDADRPSKETVRRWLGEPIEAIIIPSSLFVRNRSNYCVLKKEWQLIVGHFISVRANIIISTNPNDKALCQYADYVNKLINDNCDKHMLNSYENMLEIPLQPLCDNLDTYTYEVFETDPVKYKLYQDAVQAALLDRVSAAEAKTKLTVVMLLGGGRGPLARAVFNAAELTKRKVRLYIIEKNPNAIRTLSNMVKTLWADKDVHIFSKDMRDFSPPELADIMVSELLGSFGDNELSPECLDGALKLLKPDGISIPYKSTSYINPLMSAVLHQNVCQLLPTYPAFDYGYVSLLKNIYHIDEPQALFEFVHPNRAENIDNTRCKTVSFKVNKDCVLHGIGGYFDTHLYKDICLSINPLTHTPGMFSWFPMFFATRPRTLREGQTISIQFWRCVDATKVWYEWQVVNSPDDWEHHNTRGTGYNMRL

— article PMC8249470, “Binding of guide piRNA triggers methylation of the unstructured N-terminal region of Aub leading to assembly of the piRNA amplification complex” (Nature Communications, 2021)
